The supplement of paper PMC6135742
Where a name gives a salt, the structure may show the parent alone. Over roughly 2,600 compounds, “total cell number (DAPI+ nuclei) relative to DMSO vehicle control” has its median near -1.4; the lowest 2% begin near -23. The list shows a part of the results.

Test system: jimpy (Plp1 jimpy) mouse iPSC-derived oligodendrocyte progenitor cells
Assay: total cell number (DAPI+ nuclei) relative to DMSO vehicle control (SDs above negative control mean); higher = more surviving cells
Conditions: 10 µM; 3 days

SMILES	total cell number
CCN(CC)C(=O)C1(c2ccccc2)CC1CN (stereo not given) [Milnacipran HCl]	-0.999
CCN(CC)CCOCCOC(=O)C1(c2ccccc2)CCCC1 [Carbetapentane citrate]	4.89
CC#CCn1c(N2CCC[C@@H](N)C2)nc2c1c(=O)n(Cc1nc(C)c3ccccc3n1)c(=O)n2C [Linagliptin]	0.0291
Nc1cc2c(ncn2CCOCP(=O)(O)O)c(=O)[nH]1 [PMEG hydrate]	-4.38
O=C(/C=C/c1cccc(S(=O)(=O)Nc2ccccc2)c1)NO [Belinostat (PXD101)]	-11.7
Nc1nc2c(cnn2CCc2ccccc2)c2nc(-c3ccco3)nn12	-4.23
CC1(C)Cc2c(-c3ccccc3)c(-c3ccc(Cl)cc3)c(CC(=O)O)n2C1 [Licofelone]	-1.86
CC(C)(C)c1cc(NC(=O)Nc2ccc(-c3cn4c(n3)sc3cc(OCCN5CCOCC5)ccc34)cc2)no1 [Quizartinib (AC220)]	-2.51
CC(C)N(CC[C@H](c1ccccc1)c1cc(CO)ccc1O)C(C)C	-1.66
CC[C@H](NC(=O)[C@H](C)NC)C(=O)N1C[C@@H](O)C[C@H]1Cc1c(-c2[nH]c3cc(F)ccc3c2C[C@@H]2C[C@H](O)CN2C(=O)[C@H](CC)NC(=O)[C@H](C)NC)[nH]c2cc(F)ccc12 [Birinapant]	-9.12
CN1CCN2c3ncccc3Cc3ccccc3C2C1 (stereo not given) [Mirtazapine]	-1.22
Cn1cc(C(F)(F)F)nc1-c1ccc(OCC(O)CNCCOc2ccc(O)c(C(N)=O)c2)cc1 (stereo not given)	1.49
CC(C)[C@H](N)C(=O)OCCOCn1cnc2c(=O)nc(N)[nH]c21 [Valaciclovir HCl]	-1.33
CC1(C)O[C@@H]2C[C@H]3[C@@H]4C[C@H](F)C5=CC(=O)C=C[C@]5(C)[C@@]4(F)[C@@H](O)C[C@]3(C)[C@]2(C(=O)CO)O1 [Fluocinolone Acetonide]	7.08
Cc1cc(C)nc(NS(=O)(=O)c2ccc(N)cc2)n1 [Sulfamethazine]	0.347
CC(C)(Oc1ccc(Cl)cc1)C(=O)OCCOC(=O)c1cccnc1 [Etofibrate]	0.165
NC(C(=O)O)C(O)C(=O)O (racemic) [DL-threo-beta-hydroxyaspartic acid]	0.242
CC1=NN(c2ccc(C)c(C)c2)C(=O)/C1=N\Nc1cccc(-c2cccc(C(=O)O)c2)c1O [Eltrombopag]	0.452
O=C(O)C1=CC(=C(c2ccc(O)c(C(=O)O)c2)c2ccc(O)c(C(=O)O)c2)C=CC1=O [Aurintricarboxylic acid]	-2.05
CCn1c(=O)c2c(nc(/C=C/c3ccc(OC)c(OC)c3)n2C)n(CC)c1=O [Istradefylline]	-2.25
